Measurements from PMC7819943, “Rice protein-binding microarrays: a tool to detect cis-acting elements near promoter regions in rice”.
This is one part of the list.

target: T1, OsWOX13 (Oryza sativa, UniProt Q5QMM3 1-267); experiment: protein-binding microarray (RPBM); PBS, 2% BSA, 51.3 ng/ul salmon testes DNA, 50 uM zinc acetate, 200 nM TF, 25 C, 1 h; high values mean tight binding; details: protein: recombinant; tags: N-terminal polyhistidine and DsRed monomer fusion (pET32a); label: CyDye5-dUTP incorporated in the synthesized complementary strand; 3' TTTTT single-stranded linker to array surface; dsDNA, one strand shown
T1 sequence: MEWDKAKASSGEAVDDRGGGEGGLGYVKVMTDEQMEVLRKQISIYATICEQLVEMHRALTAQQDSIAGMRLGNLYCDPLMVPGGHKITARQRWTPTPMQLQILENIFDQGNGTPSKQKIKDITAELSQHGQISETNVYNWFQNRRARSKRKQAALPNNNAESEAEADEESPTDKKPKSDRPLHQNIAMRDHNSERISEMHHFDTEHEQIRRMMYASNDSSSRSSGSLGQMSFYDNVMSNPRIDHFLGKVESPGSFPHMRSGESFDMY
Method in brief: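 The binding signal is fluorescence intensity per array feature (arbitrary units). Readings came from an Axon 4000B scanner after a washed, 2% BSA-blocked, double-stranded custom Agilent array had been incubated for 1 h at 25 °C with 200 nM protein and 50 µM zinc acetate. The protein was a Ni–NTA-purified transcription factor fused N-terminally to polyhistidine and DsRed, expressed in E. coli BL21-CodonPlus.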

Sequence	binding signal
AATTAGACATGACAAAACTGAAATTAAGGCGCTCTTGACTCGGAGTCACCTAGTGCAG	20600 fluorescence intensity (a.u.)
ACTAGTGATGGTCGGTGATAGATGCTCAACCCAAATTACACGGAGTCACCTAGTGCAG	6330 fluorescence intensity (a.u.)
CCCTTCATTTCCTTAATTAATTTCCATTCGATCAACAGCTCGGAGTCACCTAGTGCAG	18500 fluorescence intensity (a.u.)
TCGTCTAATTAGTATTTCTGTTGCACAACACTACTATTTCCGGAGTCACCTAGTGCAG	25500 fluorescence intensity (a.u.)
GTGATGATTGTTAGTGGATGATGATGTGGCATCTTGTTAACGGAGTCACCTAGTGCAG	23200 fluorescence intensity (a.u.)
TTCCTTTTGCATGATAGGAATCAATCATCAATAGTCAAAACGGAGTCACCTAGTGCAG	6710 fluorescence intensity (a.u.)
ACTATTAATGTGAACTGATATGATACATTTTAGAGCTAGCCGGAGTCACCTAGTGCAG	6440 fluorescence intensity (a.u.)
CGCATCTTGATTAATTGCTGGCCGGCTGCGTTCTTTTGAACGGAGTCACCTAGTGCAG	24000 fluorescence intensity (a.u.)
TCTGATTAAATTCAATTGCTTTGCACACAGGGCTCCATAACGGAGTCACCTAGTGCAG	25600 fluorescence intensity (a.u.)
GTGGCATAATTGGGAAGGGTGGAGTCAACACGAAGCAGATCGGAGTCACCTAGTGCAG	11900 fluorescence intensity (a.u.)
TATACTGAATTAATTGCAAGTAGCTTAGAGTCGTCGGTTTCGGAGTCACCTAGTGCAG	15400 fluorescence intensity (a.u.)
GCTCCTAACCAATCAGCGCACCCATCGTCCCAAAATCCCCCGGAGTCACCTAGTGCAG	8480 fluorescence intensity (a.u.)
CAGAAATTTTCGCTATTCAAATTTCCTGTCTACCTCCTCTCGGAGTCACCTAGTGCAG	3760 fluorescence intensity (a.u.)
ACTCAATTAGAGTGCATCAAAACGATTTTAGAACAGTTTACGGAGTCACCTAGTGCAG	4240 fluorescence intensity (a.u.)
ACTTCCATACACCGATTGATTGTAATTAAGCTTGTTGTTCCGGAGTCACCTAGTGCAG	21900 fluorescence intensity (a.u.)
AGATGGGATTGATAGCACAACAATAATTCTTCTGCTCTGCCGGAGTCACCTAGTGCAG	25300 fluorescence intensity (a.u.)
TGAAATTGGAGATGATGTGACTGAAAAGTTGTGTGTGTATCGGAGTCACCTAGTGCAG	20800 fluorescence intensity (a.u.)
GCTCTTAATTTAATTATGCTCATTTCAGGAATGTTTCAAACGGAGTCACCTAGTGCAG	19600 fluorescence intensity (a.u.)
CAAGATTGTAGTTAATAAATTTAGACGCTAACGATTATTACGGAGTCACCTAGTGCAG	4730 fluorescence intensity (a.u.)
AGTAAACTGAATAGTATTCAGCCGAATAAATATTGTACATCGGAGTCACCTAGTGCAG	3640 fluorescence intensity (a.u.)
CATAATTAATCTTCTCTTTGAAGAAGTGTAGCTGTGAATTCGGAGTCACCTAGTGCAG	24200 fluorescence intensity (a.u.)

Sequence	binding signal
TCCCTGTCATTCCATCGTTTGTTCCATCCCATGGACCGGCCGGAGTCACCTAGTGCAG	3950 fluorescence intensity (a.u.)
GAAACTAATCACCTATACTATCGGAGAACCTAATTTAACCCGGAGTCACCTAGTGCAG	3660 fluorescence intensity (a.u.)
TTAATACAAATTTATTTCCCATAATCAAGGAGGCGATATCCGGAGTCACCTAGTGCAG	8060 fluorescence intensity (a.u.)
TTCAACTCGAGATTGAAAACTTTCAAATCTAGATTTGAAACGGAGTCACCTAGTGCAG	3250 fluorescence intensity (a.u.)
CAGGAATTGAAATGTAAAACAGAGGATTGCAAAACACAGGCGGAGTCACCTAGTGCAG	3630 fluorescence intensity (a.u.)
AACTGATAGATGCTCAAGAAGTTAACTTTAAAGGTTCAAGCGGAGTCACCTAGTGCAG	17900 fluorescence intensity (a.u.)
CCTCCCACCAACTGAGCTTGATTGAAGGCGGTTCATAAACCGGAGTCACCTAGTGCAG	12600 fluorescence intensity (a.u.)
TGCATCTTTCTGTTTAAATCATGTTATCATCGATGCAGTTCGGAGTCACCTAGTGCAG	4130 fluorescence intensity (a.u.)
TTAAATTAATAGCTCTGTTCCCTGTGGCTTTATATAAACACGGAGTCACCTAGTGCAG	5260 fluorescence intensity (a.u.)
ATTGTTCATACCCATAATTGGCAGATGTGCTGTTGCATCACGGAGTCACCTAGTGCAG	6710 fluorescence intensity (a.u.)
TGGGACTGATTAACAAGATAACTGAAACTATGTATTTATGCGGAGTCACCTAGTGCAG	11500 fluorescence intensity (a.u.)
CAGCCAAGACATCATCAATCTAATGCATGCATCATGCATGCGGAGTCACCTAGTGCAG	3930 fluorescence intensity (a.u.)
CACCCTACTAATTAATCCCCATCATGTAGATACATATCCACGGAGTCACCTAGTGCAG	10200 fluorescence intensity (a.u.)
AAAGATTGCACTCAAATAAATTAAGAAATCTCTTTTGTGACGGAGTCACCTAGTGCAG	11900 fluorescence intensity (a.u.)
ACATGATTTCAATTTCACAGTGGCTAACTACTCAACATGCCGGAGTCACCTAGTGCAG	25700 fluorescence intensity (a.u.)
GATGAAATGATGATGATGATACAGCTGCCGCTGCGTGCTCCGGAGTCACCTAGTGCAG	4710 fluorescence intensity (a.u.)
AATCCTAATTATAAGATTTAAGACCTTTCTCTTCACTTCACGGAGTCACCTAGTGCAG	9800 fluorescence intensity (a.u.)
AGGAGATTAGTCTAATTAACAAGTGCAGATTCCCTAGCATCGGAGTCACCTAGTGCAG	27600 fluorescence intensity (a.u.)
GAAATTATAACATTGTAATTTACTATGAGTTACAAAGTAACGGAGTCACCTAGTGCAG	13900 fluorescence intensity (a.u.)
CTATAATAATTGATATTGTCTCGGATTATCTACTTAAATACGGAGTCACCTAGTGCAG	8550 fluorescence intensity (a.u.)
ATGGAGAGAGGTGTAATTGGCATTCACTTCTAAAGGGTCACGGAGTCACCTAGTGCAG	4850 fluorescence intensity (a.u.)

Sequence	binding signal
CATGACCGAAATTTTAGGTCTAAATTAAAATAATCAAGCCCGGAGTCACCTAGTGCAG	8680 fluorescence intensity (a.u.)
TGCAATAAATTATAGATGACTGAACATTTACACTCTACAGCGGAGTCACCTAGTGCAG	15300 fluorescence intensity (a.u.)
GTATAAATTTTCCAGAAATTTGGTGTATTCCATGTATTTCCGGAGTCACCTAGTGCAG	3960 fluorescence intensity (a.u.)
TGAATCTATTAAGCCTAATTAATCCATCATTAGTAAATGTCGGAGTCACCTAGTGCAG	8280 fluorescence intensity (a.u.)
ACGTGACAAGTTAATTCCTGAAGAAATTTCTGAATGAACCCGGAGTCACCTAGTGCAG	10100 fluorescence intensity (a.u.)
CCTGACTGGGAAATCATGTGCATAACATTGGTTTGGGCCTCGGAGTCACCTAGTGCAG	48400 fluorescence intensity (a.u.)
CGACCATAAACCTCAATCACTGTTAGCCATCCATCTGCACCGGAGTCACCTAGTGCAG	5890 fluorescence intensity (a.u.)
TATAATAATAAATTGAACAGTTAGCTCTAGTCCAAATTCACGGAGTCACCTAGTGCAG	8050 fluorescence intensity (a.u.)
TTGATATGGTGATTTGGACTCGAATGATAGGAGTGCTGGTCGGAGTCACCTAGTGCAG	11700 fluorescence intensity (a.u.)
AGTGTCAATCTTAAGTGTAATGAACACCCTGCACATCTGGCGGAGTCACCTAGTGCAG	8620 fluorescence intensity (a.u.)
TACAGTGTAATTACACTACGATTATACTATAATTACATCTCGGAGTCACCTAGTGCAG	14300 fluorescence intensity (a.u.)
TGGAATTGAAAGTTGAAACCATGCACCACTAGTCTCTCTCCGGAGTCACCTAGTGCAG	11500 fluorescence intensity (a.u.)
GTAACTGATATGACACGCCAAAACTTTACCACCCTATCCACGGAGTCACCTAGTGCAG	9160 fluorescence intensity (a.u.)
GTTGATATATTCAGCAATTAACTGCAATACTGACATTATCCGGAGTCACCTAGTGCAG	4630 fluorescence intensity (a.u.)
ATTAATCTATAGCCAATCTAATAGCTCATCCATACAATAGCGGAGTCACCTAGTGCAG	3390 fluorescence intensity (a.u.)
ACCCAGGCTTTGATTGCGATGATAAACCGAGCTCGCAGCACGGAGTCACCTAGTGCAG	13800 fluorescence intensity (a.u.)
ATTAATAATAGAATAGATGGCTCGAATACACCGGATTGTTCGGAGTCACCTAGTGCAG	6000 fluorescence intensity (a.u.)
CTTTTGACTGACGGGTGGGACCAAATTTACGGGCCCACAGCGGAGTCACCTAGTGCAG	10400 fluorescence intensity (a.u.)
TAGACTAATCATGAATCAATTAGGCTCAATAGATTCGTCTCGGAGTCACCTAGTGCAG	30800 fluorescence intensity (a.u.)
TATCTATCAAATCCAAACAGCTACTAAATTAAATATATCCCGGAGTCACCTAGTGCAG	3460 fluorescence intensity (a.u.)
ATATATATATATATATATATTACTAGTTAACGTACTTAGTCGGAGTCACCTAGTGCAG	15700 fluorescence intensity (a.u.)

Sequence	binding signal
TCCGTAGTTGATTAGTACTAGTTCGACCAGTAGTTTCGCCCGGAGTCACCTAGTGCAG	34900 fluorescence intensity (a.u.)
AAATATAATAAATTTAATGTTAACATATTTTACACGTAAGCGGAGTCACCTAGTGCAG	8420 fluorescence intensity (a.u.)
CGAGATTAGTTTAGTTGCTATCTTGTTTGTTCTCCCTTTGCGGAGTCACCTAGTGCAG	6430 fluorescence intensity (a.u.)
TATTATAAATTTCTAAATTACATTATGATTTTAGTGTATTCGGAGTCACCTAGTGCAG	9930 fluorescence intensity (a.u.)
TATTTGCGGTACCAAGTGATTGACACTCCAGGGATCCTTGCGGAGTCACCTAGTGCAG	11900 fluorescence intensity (a.u.)
ACATTAATTAATTAGAAGAATTAACATATACAAACAAAATCGGAGTCACCTAGTGCAG	13200 fluorescence intensity (a.u.)
CTTACGTGTAAATTGAAATTACATTGTAATTTACATTTGACGGAGTCACCTAGTGCAG	34200 fluorescence intensity (a.u.)
ACTAATTTCATAACTCGCCTGGAAACCGCGAGACGAATCTCGGAGTCACCTAGTGCAG	5910 fluorescence intensity (a.u.)
TTACTAATTTTGGCTCATATTTCCAACACTAGGATGGTATCGGAGTCACCTAGTGCAG	6960 fluorescence intensity (a.u.)
GCTCAAATCAATTGTCTTATTATCGATTAAAAGGAGAAAACGGAGTCACCTAGTGCAG	5660 fluorescence intensity (a.u.)
CACCAAATTGTGCTAATCCTTGGCAGAACAGCTATGATGTCGGAGTCACCTAGTGCAG	5430 fluorescence intensity (a.u.)
CCTGATTGATGAAGAGCATGTTAAGTTCAGCAACATTCCTCGGAGTCACCTAGTGCAG	50800 fluorescence intensity (a.u.)
CAAACTTTTGATTTGCGTGTATGGATTTATGTATCTCCAACGGAGTCACCTAGTGCAG	10600 fluorescence intensity (a.u.)
CTCGTGATCAATCTCCACAAAACTATATTTGTTGAAATGACGGAGTCACCTAGTGCAG	5590 fluorescence intensity (a.u.)
GTTCGATTGGATCTGGGATTTATGCGACGACATGGTTTGACGGAGTCACCTAGTGCAG	5040 fluorescence intensity (a.u.)
CCAATTACTGATAATACGTCCAATTATACGTCAAATGGCGCGGAGTCACCTAGTGCAG	9400 fluorescence intensity (a.u.)
ATTGATGGAGGATATTCACTTGAAGGACTTACAAATGATCCGGAGTCACCTAGTGCAG	6290 fluorescence intensity (a.u.)
TTGATTAGAGAACTCTCTCTCTCTACCTGATTCGATTCGCCGGAGTCACCTAGTGCAG	16600 fluorescence intensity (a.u.)
TTTTAATCAATGGAAAGTAATTACTGTAAATTGTTTGACACGGAGTCACCTAGTGCAG	22700 fluorescence intensity (a.u.)
TGATTTAATTTGGGCATGGGTGGCCGAGTAGATCATTTTGCGGAGTCACCTAGTGCAG	4320 fluorescence intensity (a.u.)
TAGTTTAATTAGCTTAAGAACACGCCTTGTAGAGTGCTATCGGAGTCACCTAGTGCAG	14800 fluorescence intensity (a.u.)
